In article PMC4336329 (PLoS ONE, 2015):
In all, about 310,000 compounds went through this assay and about 14,000 (4.5%) showed an effect of 50% or more. Effects have a minus sign here. The list shows a part of the results.

molecular target: human ether-à-go-go-related gene (hERG) potassium channel (human, UniProt Q12809); experiment: primary screen, population patch clamp on CHO cells stably expressing hERG
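Further: peak tail current of the secondary pulse compared with the same well before compound.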

Sequence of human ether-à-go-go-related gene (hERG) potassium channel (Q12809 whole entry, looked up): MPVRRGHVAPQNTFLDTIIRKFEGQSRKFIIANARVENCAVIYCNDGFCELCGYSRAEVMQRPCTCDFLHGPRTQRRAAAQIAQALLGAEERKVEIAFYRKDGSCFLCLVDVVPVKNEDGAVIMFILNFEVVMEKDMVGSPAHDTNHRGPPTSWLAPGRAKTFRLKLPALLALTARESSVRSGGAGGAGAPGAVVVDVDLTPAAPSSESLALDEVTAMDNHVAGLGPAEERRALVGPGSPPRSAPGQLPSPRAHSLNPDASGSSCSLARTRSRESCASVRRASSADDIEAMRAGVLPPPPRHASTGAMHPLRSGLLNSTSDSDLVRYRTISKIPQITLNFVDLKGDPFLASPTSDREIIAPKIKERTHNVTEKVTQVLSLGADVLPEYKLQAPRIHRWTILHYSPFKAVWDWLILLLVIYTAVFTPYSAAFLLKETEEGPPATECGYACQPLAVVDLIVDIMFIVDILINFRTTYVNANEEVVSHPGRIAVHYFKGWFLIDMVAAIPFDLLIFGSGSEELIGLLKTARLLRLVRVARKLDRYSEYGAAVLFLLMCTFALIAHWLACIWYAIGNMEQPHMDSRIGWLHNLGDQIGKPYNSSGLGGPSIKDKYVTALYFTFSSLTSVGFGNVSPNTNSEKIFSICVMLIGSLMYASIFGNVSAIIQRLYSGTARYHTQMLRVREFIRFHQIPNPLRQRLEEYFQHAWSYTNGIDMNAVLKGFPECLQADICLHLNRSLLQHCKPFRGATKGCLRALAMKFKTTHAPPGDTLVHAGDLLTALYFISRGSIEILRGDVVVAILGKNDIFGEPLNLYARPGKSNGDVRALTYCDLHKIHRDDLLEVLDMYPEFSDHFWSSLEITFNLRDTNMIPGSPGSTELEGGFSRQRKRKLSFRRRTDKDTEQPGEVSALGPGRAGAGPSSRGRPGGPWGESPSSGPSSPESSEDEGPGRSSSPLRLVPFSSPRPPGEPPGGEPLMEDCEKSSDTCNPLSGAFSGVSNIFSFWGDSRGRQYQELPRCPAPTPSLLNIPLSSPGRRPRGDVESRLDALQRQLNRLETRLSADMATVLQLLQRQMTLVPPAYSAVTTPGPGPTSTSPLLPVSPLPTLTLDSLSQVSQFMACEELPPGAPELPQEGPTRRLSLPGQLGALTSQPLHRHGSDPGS

Compound	hERG current change (%, negative = inhibition) at 10uM [%]
COCCN(C(=O)CCC(=O)Nc1nccs1)C(C(=O)NCCC(C)C)c1ccc(F)cc1 (stereo not drawn)	-14.4
Cc1ccc(Nc2ccc(C(=O)O)cc2[N+](=O)[O-])cc1	15.1
C=CCn1c(SCCN2C(=O)c3ccccc3C2=O)nc2scc(-c3ccccc3)c2c1=O	-0.665
CC(C)(C)OC(=O)N1CCC(c2c(C(=O)N3CCN(C(=O)c4ccco4)CC3)cnn2-c2ccc(F)cc2F)CC1	-19.6
O=C(CSc1ccc([N+](=O)[O-])cn1)Nc1ccc2[nH]c(=O)[nH]c2c1	11.8
COc1cccc(-c2nnn(CC(=O)N(CC(C)C)C3CCS(=O)(=O)C3)n2)c1 (stereo not drawn)	-1.26
O=C(CCc1nnc2n(Cc3ccc(F)cc3)c(=O)c3ccccc3n12)N1CCN(c2ccccn2)CC1	-79.2
CCOC(=O)c1c(C)[nH]c(C)c1S(=O)(=O)N(C)CC(=O)Nc1ccc(C)cn1	-1.35
Cc1csc(=O)n1CCC(=O)OCC(=O)c1c(N)n(CC(C)C)c(=O)n(C)c1=O	-26.2
O=C(NCCCN1CCCC1)c1ccc(Cn2c(=S)[nH]c3ccc(Br)cc3c2=O)cc1	-14.5
CC1C(c2ccccc2)=NNc2nc3c(c(=O)n(C)c(=O)n3C)n21 (stereo not drawn)	3.99
CC1=C(C(=O)OCC(C)C)C(c2ccc(Br)s2)NC(=O)N1 (stereo not drawn)	7.07
C=CC[N+](C)(C)c1ccc(CCC(=O)CCc2ccc([N+](C)(C)CC=C)cc2)cc1.[Br-]	0.803
CCOc1ccccc1-c1nc(-c2ccc(NC(=O)Cc3ccccc3OC)cc2)no1	17.4
Cc1ccc(-n2nnc3c(=O)n(CC(=O)NCC4CCCO4)cnc32)cc1 (stereo not drawn)	-4.75
CN1CCN(c2ccc(NC(=O)CN3CCOCC3)cc2F)CC1	24.5
CC(C)(C)c1nc[nH]c(=O)c1Br	-0.274
COc1ccc2[nH]c(=O)c(-c3nnn(-c4ccc(Cl)c(Cl)c4)n3)cc2c1	8.2
O=C(O)c1cc(-c2cc3ccccc3o2)nn1-c1ccccc1	2.03
O=C(N/N=C/c1ccccc1O)/C(=C/c1ccccc1)CCO	-8.63
C=CCN1C(=O)CSC1=Nc1ccc(C(=O)O)cc1	4.98
Cc1ccc(C(=O)Nc2ccc3c(c2)OCCO3)c(Cl)c1	6.17

Compound	hERG current change (%, negative = inhibition) at 10uM [%]
CC(C)(C)NC(=O)C(c1ccc(F)cc1)N(CC1CCCO1)C(=O)CCC(=O)Nc1ccccn1 (stereo not drawn)	-3.52
CCCCOc1ccc(C(=O)N/C(=C\c2cccc([N+](=O)[O-])c2)C(=O)OCCC)cc1	13
O=C(NCc1ccc(CNC(=O)c2ccco2)cc1)c1ccco1	14.2
Cc1ccccc1CN(C)C(=O)CNC(=O)c1ccc2ccccc2c1	-8.5
COc1ccc(C(=O)c2ccc(Br)cc2)cc1	-0.756
Cc1nc(Oc2cccc(Cl)c2)c2oc3ccccc3c2n1	24.3
COc1cc2c(cc1OC)C(COc1ccc(F)cc1)N(C(=O)c1ccco1)CC2 (stereo not drawn)	-28.6
O=C(OCc1ccco1)c1ccc(S(=O)(=O)N2CCCCC2)cc1	-8.51
CC(C)NC(=O)c1cnn2c1NC(c1cccs1)CC2C(F)(F)F (stereo not drawn)	17
COc1ccc(CNC(=O)C2CC(c3ccc(C(F)(F)F)cc3)=NO2)cc1 (stereo not drawn)	7.34
O=S(=O)(c1ccccc1)c1cnn2c(C(F)(F)F)cc(-c3ccc(F)cc3)nc12	-8.47
CCc1ccc(C2C3=C(CC(C)(C)CC3=O)Nc3c2c(=O)[nH]c2nc(C)nn32)cc1 (stereo not drawn)	16.1
NC(=S)Nc1ccc2c(c1)OCO2	15.6
CC(C)CC(NC(=O)c1ccco1)C(=O)Nc1ccc2c(c1)OCCO2 (stereo not drawn)	-0.517
COC(=O)C(NC(=O)c1ccccc1)c1ccccc1 (stereo not drawn)	5.97
COc1ccccc1OCCCn1c(=O)oc2ccccc21	-6.19
CC(C)C(=O)NCC(c1ccc2c(c1)OCO2)N1CCOCC1 (stereo not drawn)	11.3
CC(C)c1ccc(OCC(=O)NC2CC(C)(C)NC(C)(C)C2)c(Br)c1	-34
Cc1ccc(NC(=S)N(Cc2ccccc2)C(C)C)cc1	12
COc1ccc(S(=O)(=O)Nc2nnc(CC(C)C)s2)cc1	-8.48
O=C1COc2ccc(NC(=O)N3CCN(c4ccc(F)cc4)CC3)cc2N1	-79.8
Cc1ccc(NC(=O)COc2coc(CN3CCN(c4ccccc4)CC3)cc2=O)cc1	1.7

Compound	hERG current change (%, negative = inhibition) at 10uM [%]
Cc1cccc(C(=O)NCCCNC(=O)c2cccnc2)c1	4.33
CC1CN(CC(=O)Nc2nc(-c3ccc(Cl)cc3)cs2)CC(C)O1 (stereo not drawn)	-27.6
CSc1ccc(CN(C)CC(=O)Nc2cccc(Br)c2)cc1	-1.24
COc1cc(NS(=O)(=O)c2ccccc2)ccc1-n1nc(C)cc1C	2.82
COc1cc(NC2=CC(=O)CC(C)(C)C2)cc(OC)c1	6.65
COc1ccc(CNC(=O)NC(C)(C)c2cccc(C(C)(C)NC(=O)NCc3ccc(OC)cc3)c2)cc1	1.7
COc1ccc(Br)c(-c2nnc(CS(=O)(=O)c3ccccc3)o2)c1	-29.3
O=C(Nc1cccc(S(=O)(=O)NC2=NCCC2)c1)c1ccccc1OC(F)F	-3.52
COc1ccc(-c2nn(CC(=O)N(C)C)c(=O)c3ccccc23)cc1	-18.5
COc1ccc(NC(=O)Nc2nnc(Cc3ccc(OC)c(OC)c3)s2)cc1	20.7
Cc1cccc(Cc2cnc(NC(=O)C3=NCCN3)s2)c1	7.23
CCOc1ccccc1N(CC(=O)NCc1ccco1)C(=O)CCC(=O)Nc1nccs1	-2.82
CCn1nc(NS(=O)(=O)c2cccc3nonc23)c2cc3ccc(C)cc3nc21	2.62
COc1ccc(S(=O)(=O)N2CCNC(=O)C2)cc1Br	11
Cc1cccc(NC(=O)CSCC(=O)Nc2cc(S(=O)(=O)N3CCOCC3)ccc2N2CCCC2)c1	-10.5
CCCC1NC(C(=O)O)Cc2c1[nH]c1ccccc21 (stereo not drawn)	6.71
CCc1ccccc1NS(=O)(=O)c1cccc2nsnc12	-14.9
Cc1cc(OCCCC(=O)NCCc2ccccn2)ccc1Cl	3.2
Cc1ccccc1C(=O)Nc1ccc(C(=O)N/N=C/c2ccccn2)cc1	3.91
O=C(OCc1ccccc1)C1=NNC2C(=O)N(c3ccccc3)C(=O)C12 (stereo not drawn)	1.21
CCN1CCN(c2cc(C)c3cc(NC(=O)c4cncc(Br)c4)ccc3n2)CC1	-51.8
O=C(Nc1ccccc1C(F)(F)F)N1CCN(c2ccc3nnc(-c4ccc(F)cc4)n3n2)CC1	-65.9

Compound	hERG current change (%, negative = inhibition) at 10uM [%]
CC1(C)CC2CC(C)(CN2S(=O)(=O)c2cccc(C(=O)OCC(=O)NC(N)=O)c2)C1 (stereo not drawn)	-57.1
COc1ccccc1-c1cc(C(=O)O)c2c(=O)n(C)c(=O)n(Cc3ccccc3)c2n1	16.7
Cc1cc(Br)ccc1SCC(=O)OCC(=O)NC1CCCC1	7.59
COc1cnn(-c2cccc(C(F)(F)F)c2)c(=O)c1Cl	3.08
CC(=O)Oc1ccc2c(C)c(CC(=O)N3CCN(C(=O)C4COc5ccccc5O4)CC3)c(=O)oc2c1C (stereo not drawn)	-69.6
CC(C)CN(CC(C)C)S(=O)(=O)N1CCC(C(=O)NCCN2CCOCC2)CC1	19.5
CC(C)NS(=O)(=O)c1ccc(CCC(=O)NCc2ccccn2)cc1	14.7
O=c1[nH]c2ccccc2cc1-c1nnn(-c2ccccc2)n1	-3.03
O=C(Cc1ccccc1)Nc1ccc(NC(=O)c2ccco2)cc1	22
COc1ccc(C)c2sc(N(CCCN(C)C)C(=O)c3ccc(S(=O)(=O)N4CCc5ccccc5C4)cc3)nc12.Cl	9.73
Cc1occc1C(=O)N/N=C/c1ccc(Br)s1	26.4
O=C(Nc1nccs1)c1ccc(Br)c(S(=O)(=O)N2CCOCC2)c1	-16.6
COc1ccc(CC(=O)NCCc2ccc(Cl)cc2Cl)cc1	-1.8
O=C1CCNCCN1[C@H](CO)Cc1ccccc1	9.51
CC(C)(C)OC(=O)N/N=C\c1cccnc1	27
COc1ccc(-c2nn(CCC#N)cc2C(=O)NCc2ccccc2)cc1	-39.7
CC(C)OC(=O)NC(Nc1ccccc1C(=O)O)(C(F)(F)F)C(F)(F)F	13.1
O=C(O)c1cc(-c2ccccc2)nc2nc(N3CCCCC3)sc12	8.56
COc1ccc(CN(C)C(=O)Cc2ccsc2)c(OC)c1OC	8.67
Cc1occc1C(=O)N/N=C/c1c(O)ccc2ccccc12	16
O=C(CCNC(=O)c1ccc(Br)cc1)NCc1ccccn1	-8.8
